Assay results: the supplement of paper PMC8285479
Structures can show the parent of a compound that is named as a salt. ± gives the standard deviation of the averaged measurements. Over roughly 1,900 compounds, “normalised cell viability (NPI; 0 = phenylarsine oxide control, 1 = DMSO control)” has its median near 1; the lowest 2% begin near 0.039. This is one part of the list.

Tested on: NCI-H1944
Test: normalised cell viability (NPI; 0 = phenylarsine oxide control, 1 = DMSO control) (fraction of DMSO control); NCI-H1944 is a non-small cell lung cancer line; higher = more viable cells (less compound toxicity)
Conditions: 6 days
[1] = glucocorticoid arm: hydrocortisone 2.75 uM co-treatment, compound 1 µM
[2] = glucocorticoid arm: hydrocortisone 2.75 uM co-treatment, compound 5 µM
[3] = glucocorticoid arm: hydrocortisone 2.75 uM pre-treated 2 days and continued, compound 1 µM
[4] = glucocorticoid arm: hydrocortisone 2.75 uM pre-treated 2 days and continued, compound 5 µM
[5] = glucocorticoid arm: vehicle, compound 1 µM
[6] = glucocorticoid arm: vehicle, compound 5 µM
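Further: CTB read-out in 384-well plates, mean of triplicate wells, normalised per plate against 1 µM phenylarsine oxide and 0.1% DMSO, compounds added 24 h after seeding.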

Structure (SMILES) | normalised cell viability [1] | normalised cell viability [2] | normalised cell viability [3] | normalised cell viability [4] | normalised cell viability [5] | normalised cell viability [6]
CCOC(=O)c1cnc2ccc(-c3cncc(NS(=O)(=O)c4ccccc4)c3)cn12 | 0.9357 ± 0.0074 | 0.934 ± 0.038 | 0.928 ± 0.036 | 0.945 ± 0.02 | 0.9947 ± 0.005 | 0.987 ± 0.012
O=C(O)CNC(=O)C(CS)Cc1ccccc1 (racemic) [DL-Thiorphan] | 1.007 ± 0.0058 | 1.02 ± 0.011 | 0.894 ± 0.2 | 1.017 ± 0.0058 | 0.998 ± 0.002 | 0.996 ± 0.0069
COc1cc2c(cc1OC)CC(=O)N(CCCN(C)C[C@H]1Cc3cc(OC)c(OC)cc31)CC2 [Ivabradine HCl] | 1.03 ± 0.015 | 1.01 ± 0.024 | 1.01 ± 0.011 | 0.999 ± 0.02 | 0.9993 ± 0.0011 | 0.998 ± 0.0035
O=C(CCCN1C(=O)c2cccc3cccc(c23)C1=O)NO [Nullscript] | 0.981 ± 0.011 | 0.961 ± 0.029 | 1 ± 0.012 | 0.987 ± 0.018 | 1 ± 0.0082 | 1.01 ± 0.014
Cc1c(C(=O)NN2CCCCC2)nn(-c2ccc(Cl)cc2Cl)c1-c1ccc(Cl)cc1 [Rimonabant] | 1.013 ± 0.0058 | 1.03 ± 0.015 | 1.02 ± 0.017 | 1.02 ± 0.022 | 1.003 ± 0.0058 | 0.9933 ± 0.0035
O=C(O)C(=O)O.[NH-][C@@H]1CCCC[C@H]1[NH-].[Pt+2] [Oxaliplatin] | 1.023 ± 0.0058 | 0.863 ± 0.0095 | 1.013 ± 0.0058 | 0.9563 ± 0.0038 | 1.003 ± 0.0058 | 0.585 ± 0.04
Cc1ccc(NC(=O)c2ccc(CN3CCN(C)CC3)cc2)cc1Nc1nccc(-c2cccnc2)n1 [Imatinib (Gleevec)] | 1.05 ± 0.017 | 1.14 ± 0.015 | 1.037 ± 0.0058 | 1.1 ± 0.01 | 1.01 ± 0.015 | 1.033 ± 0.0058
Cc1ccc(NC(=O)c2ccc(CN3CCN(C)CC3)cc2)cc1Nc1nccc(-c2cccnc2)n1 [Imatinib Mesylate] | 1.05 ± 0.015 | 1.14 ± 0.021 | 1.05 ± 0.015 | 1.1 ± 0.032 | 1.01 ± 0.01 | 1.03 ± 0.011
Cc1ccc(NC(=O)c2ccc(CN3CCN(C)CC3)cc2)cc1Nc1nccc(-c2cccnc2)n1 | 1.043 ± 0.0058 | 1.1 ± 0.032 | 1.04 ± 0.011 | 1.05 ± 0.01 | 0.9957 ± 0.004 | 1 ± 0.014
Oc1cc2c(c(Cl)c1O)CCNCC2c1ccccc1 (racemic) [(±)-6-Chloro-PB hydrobromide] | 1.007 ± 0.0058 | 1.04 ± 0.023 | 1.03 ± 0.015 | 1.05 ± 0.01 | 1.02 ± 0.01 | 1.02
Cc1nn(-c2ccccc2)c(C)c1C=NN1CCN(Cc2ccccc2)CC1 | 1.01 ± 0.01 | 0.991 ± 0.05 | 1.02 ± 0.011 | 0.9927 ± 0.0078 | 0.9987 ± 0.0023 | 0.996 ± 0.013
CC(C)C(=O)Oc1ccc(CO)cc1[C@H](CCN(C(C)C)C(C)C)c1ccccc1 [Fesoterodine Fumarate] | 1.002 ± 0.0076 | 0.966 ± 0.019 | 1 ± 0.025 | 0.984 ± 0.04 | 1.001 ± 0.009 | 1 ± 0.016
Fc1ccc(CN(C2=NCCN2)c2c(Cl)cccc2Cl)cc1 [IMID-4F hydrochloride] | 1.007 ± 0.0058 | 0.435 ± 0.024 | 1.013 ± 0.0058 | 1.05 ± 0.011 | 1.005 ± 0.0081 | 0.16 ± 0.0067
CCc1cc2c(cc1N1CCC(N3CCOCC3)CC1)C(C)(C)c1[nH]c3cc(C#N)ccc3c1C2=O | 0.979 ± 0.021 | 0.897 ± 0.011 | 0.9593 ± 0.0074 | 0.935 ± 0.013 | 0.9967 ± 0.0058 | 0.985 ± 0.0076
COc1ccc(NS(=O)(=O)c2sc3ccc(Cl)cc3c2C)cc1N1CCNCC1 | 1.02 ± 0.021 | 1.03 | 1.023 ± 0.0058 | 1.04 ± 0.026 | 1.02 | 1
Cn1c(=O)[nH]c2ncn(C)c2c1=O [1,7-Dimethylxanthine] | 1.007 ± 0.0058 | 1.01 ± 0.015 | 1.01 ± 0.011 | 1 ± 0.018 | 1.002 ± 0.0068 | 0.9987 ± 0.0015
C/C(=C\c1csc(C)n1)[C@@H]1C[C@@H]2O[C@]2(C)CCC[C@H](C)[C@H](O)[C@@H](C)C(=O)C(C)(C)[C@@H](O)CC(=O)N1 [Ixabepilone] | 0.132 ± 0.012 | 0.146 ± 0.018 | 0.484 ± 0.023 | 0.477 ± 0.05 | 0.0322 ± 0.0044 | 0.032 ± 0.004

Structure (SMILES) | normalised cell viability [1] | normalised cell viability [2] | normalised cell viability [3] | normalised cell viability [4] | normalised cell viability [5] | normalised cell viability [6]
C1COC(NC(C2CC2)C2CC2)=N1 [Rilmenidine hemifumarate] | 1.007 ± 0.0058 | 1.013 ± 0.0058 | 1.02 ± 0.032 | 1 ± 0.015 | 0.999 ± 0.001 | 0.996 ± 0.016
OC[C@H]1O[C@@H](n2cnc3c(NC4CCCC4)ncnc32)[C@H](O)[C@@H]1O [N6-Cyclopentyladenosine] | 1.01 ± 0.01 | 0.998 ± 0.014 | 1.001 ± 0.0081 | 1.005 ± 0.0071 | 1.002 ± 0.0068 | 1.007 ± 0.0058
C[N+](C)(C)CC=O [Betaine aldehyde chloride] | 0.9877 ± 0.0021 | 0.993 ± 0.012 | 0.9913 ± 0.0081 | 0.993 ± 0.0085 | 0.9647 ± 0.0015 | 0.9803 ± 0.0015
CCCn1c(=O)[nH]c(=O)c2[nH]cnc21 [3-n-Propylxanthine] | 1.006 ± 0.0075 | 1.01 ± 0.013 | 1.007 ± 0.0058 | 1.04 ± 0.04 | 0.9923 ± 0.0064 | 1 ± 0.018
CC(C)NCC(O)COc1ccc(CCOCC2CC2)cc1 (stereo not drawn) [Betaxolol hydrochloride] | 1 ± 0.0087 | 1 ± 0.018 | 0.9883 ± 0.0049 | 1.02 ± 0.021 | 0.989 ± 0.011 | 1.01 ± 0.013
CC(C)NCC(O)COc1ccc(CCOCC2CC2)cc1 (stereo not drawn) [Betaxolol HCl] | 1.01 ± 0.018 | 0.991 ± 0.0072 | 1.027 ± 0.0058 | 0.995 ± 0.036 | 1.003 ± 0.0058 | 1 ± 0.022
NC1CCN(c2cccc(Cl)n2)CC1 | 0.972 ± 0.0035 | 0.971 ± 0.025 | 0.868 ± 0.22 | 0.969 ± 0.022 | 0.9767 ± 0.0035 | 0.977 ± 0.0027
NC(=NCCC[C@H](N)C(=O)O)NO [NG-Hydroxy-L-arginine acetate] | 1.01 | 0.991 ± 0.014 | 0.9913 ± 0.0096 | 1 ± 0.027 | 0.9893 ± 0.0023 | 0.987 ± 0.001
CC(NC(=O)c1ccccc1/N=C/c1c(O)ccc2ccccc12)c1ccccc1 (stereo not drawn) [Sirtinol] | – | – | – | – | – | 1.01
Cc1ccc(S(=O)(=O)N[C@@H](Cc2ccccc2)C(=O)CCl)cc1 [N-p-Tosyl-L-phenylalanine chloromethyl ketone] | 0.9977 ± 0.0032 | 1.01 ± 0.028 | 0.868 ± 0.25 | 1.02 ± 0.015 | 1.007 ± 0.0058 | 0.691 ± 0.057
O=C(O)COCCN1CCN(C(c2ccccc2)c2ccc(Cl)cc2)CC1 (stereo not drawn) [Cetirizine DiHCl] | 1 ± 0.013 | 1.02 ± 0.01 | 1.007 ± 0.0058 | 1.03 ± 0.021 | 1.004 ± 0.0098 | 0.996 ± 0.0061
N[C@@H]1CONC1=O [D-Cycloserine] | 1.013 ± 0.0058 | 1.02 ± 0.017 | 1.01 | 0.996 ± 0.035 | 0.989 ± 0.0095 | 0.9983 ± 0.0029
Cn1cc(-c2cnn3c(N)c(Br)c([C@@H]4CCCNC4)nc23)cn1 | 0.972 ± 0.0099 | 0.931 ± 0.041 | 0.948 ± 0.018 | 0.936 ± 0.0078 | 1.005 ± 0.0087 | 0.9357 ± 0.0057
C=CC(=O)Nc1cccc(Nc2nc(Nc3ccc(Oc4ccnc(C(=O)NC)c4)cc3)ncc2F)c1 | 0.942 ± 0.017 | 0.7137 ± 0.0064 | 0.922 ± 0.0056 | 0.872 ± 0.075 | 0.98967 ± 0.00058 | 0.466 ± 0.029
CCCSc1nc(N[C@@H]2C[C@H]2c2ccc(F)c(F)c2)c2nnn([C@@H]3C[C@H](OCCO)[C@@H](O)[C@H]3O)c2n1 [Ticagrelor] | 1.01 ± 0.017 | 1.01 ± 0.034 | 1.027 ± 0.0058 | 1.01 ± 0.015 | 1.002 ± 0.007 | 0.988 ± 0.0082
CC(=O)O[C@]1(C(C)=O)CC[C@H]2[C@@H]3C=C(Cl)C4=CC(=O)[C@@H]5C[C@@H]5[C@]4(C)[C@H]3CC[C@@]21C [Cyproterone acetate] | 1.01 ± 0.011 | 1.03 ± 0.015 | 1.01 ± 0.018 | 1.015 ± 0.0071 | 0.994 ± 0.006 | 1.01
